# In PubChem BioAssay AID485281 (National Center for Advancing Translational Sciences (NCATS), 2010):
# Among all 350,000 compounds or so, about 260 (0.074%) were called active. This list was built around the results that the source calls inconclusive (neither active nor inactive); the mix of calls is not that of the screen. Calls come from the whole dose curve; as a rule, active = well fitted inhibition curve with a large enough effect; inconclusive = small, poorly fitted or top-dose-only effect; inactive = no such curve, though single readings can be large or run the other way. Where the call is inconclusive, the potency comes from a doubtful curve fit.
# Target: Ferritin light chain (Equus caballus) (UniProt P02791)
# Experiment: qHTS Assay for Identification of Novel General Anesthetics; note: nearly all actives have a fitted effect of over 20% in size
# Conditions: apoferritin/1-aminoanthracene competitive binding, fluorescence; activity change, negative = displacement: at 77.5 µM (top of the series)
# In short: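 In PBS, apoferritin at 10 uM is loaded with 1-AMA from a 50% saturated solution. After 10 min of compound exposure at ambient temperature, reduced 535 nm fluorescence indicates probe displacement.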
# % is set by controls: 0 for no effect and ±100 for the full control effect; potency is the fitted concentration of half-maximal effect; tags give direction and shape of the fitted curve.
# Sequence of UniProt P02791 (P02791 whole entry, looked up): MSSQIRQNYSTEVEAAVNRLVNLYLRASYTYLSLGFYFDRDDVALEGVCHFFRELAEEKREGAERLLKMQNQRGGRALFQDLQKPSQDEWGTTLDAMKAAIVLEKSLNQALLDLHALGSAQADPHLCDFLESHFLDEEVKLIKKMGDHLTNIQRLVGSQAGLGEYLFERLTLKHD
SMILES,Potency,"activity change, negative = displacement"
Cc1ccc(NC(=O)Cn2nc(-c3ccc(Cl)cc3)c3ccccc3c2=O)cc1,"inconclusive: 6.31 µM [inhibitor, partial curve]",–
CCOC(=O)N1CCN(S(=O)(=O)c2ccc(C(=O)Nc3ccc4c(c3)C(=O)NC4=O)cc2)CC1,–,inactive: -3.49%
O=C(NCCC1=CCCCC1)c1ccc([N+](=O)[O-])cc1,–,inactive: -1.4%
COc1cccc(CC2(CO)CCCN(Cc3ccccc3-c3ccco3)C2)c1 (centres undefined),"inconclusive: 12.6 µM [inhibitor, partial curve]",–
CN(C)S(=O)(=O)c1cccc(NC(=O)CN2C(=O)NC3(CCc4ccccc4C3)C2=O)c1 (centres undefined),"inconclusive: 44.7 µM [inhibitor, partial curve]",–
COCCCNCCOCCOc1ccc(C)cc1[N+](=O)[O-],–,inactive: -8.48%
O=C(CSc1nnc(CNc2ccccc2)o1)N1CCCc2ccccc21,"inconclusive: 22.4 µM [inhibitor, partial curve]",–
CC(C)c1ccc(/C=C2\SC(=O)N(CC(=O)NC3CCS(=O)(=O)C3)C2=O)cc1 (centres undefined),"inconclusive: 31.6 µM [inhibitor, partial curve]",–
Cc1ccc(-c2nnc3c(C(F)(F)F)nc4ccccc4n23)cc1,–,inactive: -11.6%
O=C(NCc1ccc2c(c1)OCO2)C(=O)NCC1OCCN1S(=O)(=O)c1ccc(F)cc1 (centres undefined),"inconclusive: 25.1 µM [inhibitor, partial curve]",–
CC(C)c1ccc(O)c(NC(=S)NC(=O)c2ccc3c(c2)OCO3)c1,"inconclusive: 56.2 µM [inhibitor, single point]",–
CN(Cc1cccs1)c1ncnc2sccc12,–,inactive: -5.87%
Cc1cc(C)c2nc(NNC(=O)c3ccc(S(=O)(=O)N4CC(C)CC(C)C4)cc3)sc2c1 (centres undefined),"inconclusive: 17.8 µM [inhibitor, partial curve]",–
Cc1ccc(S(=O)(=O)/N=C2/NC(=O)/C(=C\c3ccco3)S2)cc1,"inconclusive: 28.2 µM [inhibitor, single point]",–
CCCc1cc(=O)[nH]c(SCc2cccc(C)c2)n1,"inconclusive: 14.1 µM [inhibitor, partial curve]",–
COc1ccc(OCc2n[nH]c(=S)n2-c2ccc(C)cc2)cc1,–,inactive: -9.47%
CCOC(=O)C1=C(CN(CC)Cc2ccccc2)NC(=O)NC1c1ccc(Cl)cc1 (centres undefined),–,inactive: 36.3%
Cc1ccc(-n2c(C)cc(C(=O)CN3C(=O)C(=O)N(C4CCCC4)C3=O)c2C)cc1,"inconclusive: 12.6 µM [inhibitor, partial curve]",–
CC(C)c1nc(N2CCOCC2)c(C#N)c2c1CCC2,–,inactive: -22.2%
CC1CCc2c(sc3nnn(CC(=O)Nc4ccccc4Cl)c(=O)c23)C1 (centres undefined),"inconclusive: 20 µM [inhibitor, partial curve]",–
NNCCc1ccccc1,inactive,–
Cc1ccc(Nc2c3c(nc4ccccc24)CCC3)cc1F,"inconclusive: 17.8 µM [inhibitor, partial curve]",–
O=C(CCC1N=C2c3ccccc3N=C(SCc3cccc(Cl)c3)N2C1=O)NCc1ccco1 (centres undefined),"inconclusive: 35.5 µM [inhibitor, partial curve]",–

SMILES,Potency,"activity change, negative = displacement"
CC1CC(=O)N(c2ccc(N(C)Cc3ccccc3)c([N+](=O)[O-])c2)C1=O (centres undefined),"inconclusive: 25.1 µM [inhibitor, partial curve]",–
CN1CCN(CC(=O)N2CCn3c4c(c5cc(C6CCCCC6)ccc53)CCCC42)CC1 (centres undefined),"inconclusive: 10 µM [inhibitor, partial curve]",–
COc1ccc(C(CNC(=O)c2ccc3c(c2)C(=O)N(CCC(C)C)C3=O)N2CCOCC2)cc1 (centres undefined),"inconclusive: 50.1 µM [inhibitor, single point]",–
Cc1ccc(N/N=C/c2cccnc2)cc1,–,inactive: -23.4%
Cc1ccsc1C(=O)OCC(=O)NCCCc1ccccc1,"inconclusive: 15.8 µM [inhibitor, partial curve]",–
Cc1cc(C)n(S(=O)(=O)c2cccc(Cl)c2Cl)n1,"inconclusive: 35.5 µM [inhibitor, partial curve]",–
CCN(C(=O)c1nn(C)c2c1CSc1ccccc1-2)c1cccc(C)c1,"inconclusive: 56.2 µM [inhibitor, partial curve]",–
NC(=O)c1ccc(Cc2ncc(C(F)(F)F)cc2Cl)s1,"inconclusive: 14.1 µM [inhibitor, partial curve]",–
COc1ccc(S(=O)(=O)NCC(c2ccco2)S(=O)(=O)c2cccs2)cc1OC (centres undefined),–,inactive: 3.99%
CC(=O)Nc1cccc(C(=O)/C=C/c2ccc(Br)cc2)c1,–,inactive: -4.89%
CCOc1ccc(-c2c(C)nn3c(C)c(C(=O)NC(C)c4ccccc4)cnc23)cc1OCC (centres undefined),–,inactive: -9.25%
O=C1NCN(c2ccccc2)C12CCN(c1nnnn1-c1ccccc1)CC2,"inconclusive: 25.1 µM [inhibitor, single point]",–
CC1CCCN(C(=O)Cn2nnc(-c3ccccc3F)n2)C1 (centres undefined),"inconclusive: 50.1 µM [inhibitor, single point]",–
CC(=O)Nc1ccc(NC(=O)CSc2ccc3nnc(CCNC(=O)c4ccccc4)n3n2)cc1,–,inactive: -3.76%
O=C(NCc1ccccc1)c1n[nH]nc1-c1ccccc1O,"inconclusive: 25.1 µM [inhibitor, partial curve]",–
COc1ccc(/C=N/n2cnnc2SCc2ccccc2)cc1,"inconclusive: 7.94 µM [inhibitor, partial curve]",–
OC1CCCCC1Sc1nc2ccccc2s1 (centres undefined),"inconclusive: 22.4 µM [inhibitor, partial curve]",–
COCc1c(C#N)c(NCCc2ccc(F)cc2)nc(C)c1[N+](=O)[O-],"inconclusive: 35.5 µM [inhibitor, single point]",–
CCOC(=O)CCN1C(=O)[C@H]2[C@H]3[C@H](O)[C@H](O)C/C(=N/OCc4ccccc4)[C@H]3CC[C@@H]2C1=O,–,inactive: -7.51% [at 15.3 µM]
NN/C(=C\[N+](=O)[O-])Nc1ccc(Cl)cc1,–,inactive: -23.6%
CNC(=O)CN1C(=O)C2C3C=CC(C3)C2C1=O (centres undefined),–,inactive: 5.41%
Cc1nn(CC(=O)NCc2ccc(N(C)C)cc2)c(=O)c2nn(-c3ccccc3)c(C)c12,"inconclusive: 28.2 µM [inhibitor, partial curve]",–
c1csc(C2C3=C(Nc4ncnn42)c2ccccc2OC3)c1 (centres undefined),–,inactive: 65.5%

SMILES,Potency,"activity change, negative = displacement"
COc1ccc(N=Nc2c(C)n[nH]c2C)cc1,"inconclusive: 28.2 µM [inhibitor, partial curve]",–
CC1CCCN(C2(O)C(=O)Nc3ccc(Cl)cc32)C1 (centres undefined),"inconclusive: 50.1 µM [inhibitor, single point]",–
CC(C)C(NC(=O)c1ccccc1F)C(=O)OCC(=O)c1ccc(F)cc1 (centres undefined),"inconclusive: 35.5 µM [inhibitor, partial curve]",–
C/C(=N\NC(=O)CN(c1ccccc1)S(C)(=O)=O)c1ccccc1O,–,inactive: -4.22%
O=C(CCC1CCCC1)Nc1ccc(C(=O)NCc2cccnc2)cc1,"inconclusive: 35.5 µM [inhibitor, partial curve]",–
Cc1ccc(CNC(=O)Cn2c3ncccc3c(=O)n2-c2ccc(C)cc2)cc1,–,inactive: 1.06%
S=C(NCCc1ccccc1)Nc1ccc(Cl)cc1Cl,"inconclusive: 28.2 µM [inhibitor, partial curve]",–
CCOc1ccc(CNC(=O)CSc2c3c(nc4ccc(Cl)cc24)CCCC3)cc1,"inconclusive: 15.8 µM [inhibitor, partial curve]",–
CC(C)c1cc(-c2nc(-c3cccc(Cl)c3)no2)n[nH]1,"inconclusive: 56.2 µM [inhibitor, partial curve]",–
CCOc1nc(C)ccc1-c1noc(-c2ccccn2)n1,–,inactive: -16.6%
CN1CCN(CCCNC(=O)Cn2nc(-c3ccccc3)ccc2=O)CC1,–,inactive: 3.12%
Cc1cc(C)n(-c2ccc(C(=O)Nc3ccc4c(c3)OCO4)cc2)n1,"inconclusive: 28.2 µM [inhibitor, partial curve]",–
COc1ccc(C(=O)NC(=S)Nc2ccc(CN3CCOCC3)cc2)cc1Br,–,inactive: -0.919%
O=C(Cc1ccccc1)Nc1cccc(N2C(=O)C=CC2=O)c1,–,inactive: -11.2%
O=C(Cn1cnc2ccccc21)OCC(=O)N1CCCc2ccccc21,"inconclusive: 25.1 µM [inhibitor, partial curve]",–
COc1ccc(OC)c(C2=Nn3c(nnc3C3CCCCC3)SC2)c1,"inconclusive: 39.8 µM [inhibitor, single point]",–
Cc1cccc(SCC(=O)Nc2ccccc2[N+](=O)[O-])c1,"inconclusive: 14.1 µM [inhibitor, partial curve]",–
CC[C@H](C)[C@H](NC(=O)[C@H](CCC(=O)O)NC(=O)CNC(=O)[C@H](CCCCN)NC(=O)[C@H](CCC(=O)O)NC(=O)[C@H](CCSC)NC(=O)[C@H](CCSC)NC(=O)[C@H](CCSC)NC(=O)[C@H](CCC(=O)O)NC(=O)CNC(=O)[C@H](CO)NC(=O)[C@H](CO)NC(=O)[C@H](CO)NC(=O)[C@@H](N)CC(N)=O)C(=O)N[C@@H](CCCCN)C(=O)O,–,inactive: -1.58%
COc1ccc(C(=O)Oc2cc(-c3ccc(OC)c(OC)c3)cc(=O)c3c(C)oc(C)c23)cc1,"inconclusive: 56.2 µM [inhibitor, partial curve, poor fit]",–
COC(=O)C(NNc1ccccc1)(NC(=O)c1cccc(F)c1)C(F)(F)F (centres undefined),"inconclusive: 56.2 µM [inhibitor, single point]",–
CCN(CC)S(=O)(=O)c1ccc2c(c1)nc(SCn1nnc3ccccc3c1=O)n2CC,"inconclusive: 35.5 µM [inhibitor, partial curve]",–
Nn1c(SCc2c(F)cccc2F)nnc1-c1ccccn1,–,inactive: -19.7%
O=c1cc(C(F)(F)F)nc(SCc2cccc3ccccc23)[nH]1,"inconclusive: 56.2 µM [inhibitor, single point]",–
